Some of the results follow. The list includes weakly bound sequences.

The target of the assay is T1, MBP-FoxP3dN (UniProt Q99JB6).
T1 sequence: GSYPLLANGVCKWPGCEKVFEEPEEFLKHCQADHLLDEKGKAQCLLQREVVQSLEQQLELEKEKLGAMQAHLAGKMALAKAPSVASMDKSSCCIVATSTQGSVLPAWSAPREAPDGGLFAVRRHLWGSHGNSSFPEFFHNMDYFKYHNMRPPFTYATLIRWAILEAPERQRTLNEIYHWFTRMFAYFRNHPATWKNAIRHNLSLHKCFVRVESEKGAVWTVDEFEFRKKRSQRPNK
In words: PD-seq (MBP pull-down with sequencing). Particulars: 20 mM Tris-HCl pH 7.5, 100 mM NaCl, 1.5 mM MgCl2, 0.4 uM protein, 0.1 uM dsDNA library, 30 min, room temperature, amylose pull-down; high values mean tight binding; double strand, one strand shown.
On to “GATGATTGTTCTCCCAGCTGATGAATTAAAGAGGTCGAGTAAACAAATTTTCCTAATCTTTCTGTTCAAGCGCCATCTAC”, for which the binding signal (RPM ratio (pull-down/input)) stood at 0.179. For “GATGATTGTTCTCCCAGCTGATGAATTGATGTATTCGAGTAAACAAATTTTCCTAATCTTTCTGTTCAAGCGCCATCTAC” the value was 2.27. For “GATGATTGTTCTCCCAGCTGATGAATTTGGAGTTTCGAGTAAACAAATTTTCCTAATCTTTCTGTTCAAGCGCCATCTAC” the value was 1.2.

In the case of “GATGATTGTTCTCCCAGCTGATGAATTTAATTACTCGAGTAAACAAATTTTCCTAATCTTTCTGTTCAAGCGCCATCTAC”, the binding signal (RPM ratio (pull-down/input)) was 4.86.

In the case of “GATGATTGTTCTCCCAGCTGATGAATTACAGCAGTCGAGTAAACAAATTTTCCTAATCTTTCTGTTCAAGCGCCATCTAC”, the binding signal (RPM ratio (pull-down/input)) came out at 0.516. For “GATGATTGTTCTCCCAGCTGATGAATTAACCGCGTCGAGTAAACAAATTTTCCTAATCTTTCTGTTCAAGCGCCATCTAC” the value was 0.484; for “GATGATTGTTCTCCCAGCTGATGAATTTTGTCTGTCGAGTAAACAAATTTTCCTAATCTTTCTGTTCAAGCGCCATCTAC”, 1.87. Take “GATGATTGTTCTCCCAGCTGATGAATTCCAAAAGTCGAGTAAACAAATTTTCCTAATCTTTCTGTTCAAGCGCCATCTAC”: the binding signal (RPM ratio (pull-down/input)) amounted to 0.187. For “GATGATTGTTCTCCCAGCTGATGAATTGGACTGGTCGAGTAAACAAATTTTCCTAATCTTTCTGTTCAAGCGCCATCTAC” the value was 0.268; for “GATGATTGTTCTCCCAGCTGATGAATTCAGATTGTCGAGTAAACAAATTTTCCTAATCTTTCTGTTCAAGCGCCATCTAC”, 1.1. For “GATGATTGTTCTCCCAGCTGATGAATTGTAGTGCTCGAGTAAACAAATTTTCCTAATCTTTCTGTTCAAGCGCCATCTAC” the value was 1.25; for “GATGATTGTTCTCCCAGCTGATGAATTTGTTGTATCGAGTAAACAAATTTTCCTAATCTTTCTGTTCAAGCGCCATCTAC”, 7.55; for “GATGATTGTTCTCCCAGCTGATGAATTAATGCAGTCGAGTAAACAAATTTTCCTAATCTTTCTGTTCAAGCGCCATCTAC”, 1.77. With “GATGATTGTTCTCCCAGCTGATGAATTTTGACCCTCGAGTAAACAAATTTTCCTAATCTTTCTGTTCAAGCGCCATCTAC” the figure was 0.5; with “GATGATTGTTCTCCCAGCTGATGAATTGCCTCTCTCGAGTAAACAAATTTTCCTAATCTTTCTGTTCAAGCGCCATCTAC”, 1.04; with “GATGATTGTTCTCCCAGCTGATGAATTGGCGTGTTCGAGTAAACAAATTTTCCTAATCTTTCTGTTCAAGCGCCATCTAC”, 1.25.

For the sequence “GATGATTGTTCTCCCAGCTGATGAATTATTATGGTCGAGTAAACAAATTTTCCTAATCTTTCTGTTCAAGCGCCATCTAC”, the binding signal (RPM ratio (pull-down/input)) was 0.87.

On to “GATGATTGTTCTCCCAGCTGATGAATTGGACTACTCGAGTAAACAAATTTTCCTAATCTTTCTGTTCAAGCGCCATCTAC”, for which the binding signal (RPM ratio (pull-down/input)) came out at 0.339.

Source of the values: publication PMC12820563.
